# The list shows a part of the results.
# B1: chr7:108502517:108502634:-|CDS|ENSG00000135241|unk|FALSE|unique (ssRNA)
# RNA: GGGAGUUCUACAGUCCGACGAUCAUUAUUCCAUAUUUAUUACGACUGAGACAAAUUAAGGAUGAAACUCUUCAGGCUGCAGUUAGAGAAAUUUUGGCCCUAAUUGGCUAUGUGGAUCCAGUGAAAGGGAGAGGAAUCCGAAUUCAACAGAGGAUUGAGCAUCA
# B2: chr11:111726697:111726798:+|3pUTR|ENSG00000170145|unk|total|mutant (ssRNA)
# RNA: GGGAGUUCUACAGUCCGACGAUCGGAAGCUUCCAAGCAGUUUUCUCUUCAUCACUACUAACAAACAAAACACUAAGAAGGCUCCGUAUCGCUCUUUUUCUGCGGGGCUACUCUGAAGUACUGACUUGCUUUCCAGUCUGAUUCCAACAGAGGAUUGAGCAUCA
# B3: chr8:93925380:93925481:+|3pUTR|ENSG00000164951|msi1|FALSE|unique (ssRNA)
# RNA: GGGAGUUCUACAGUCCGACGAUCAUUUAUUUCUAAAUGUUUUGACUGGGCAUUUUUCUUUUAAUGAAAUAUGUGGACUGCUCUAGCAAACCCUAUUUUCAGCUACUAUUUGAAUAUUCUUGAACACCACCACUGAAGAGUUUCCAACAGAGGAUUGAGCAUCA
# B4: chr2:88557131:88557241:-|3pUTR|ENSG00000172071|msi1|total|mutant (ssRNA)
# RNA: GGGAGUUCUACAGUCCGACGAUCGAGGACAAGCCGCACAAACUGUAUAACGGUUUAUGUCCGCCGUUUUACCGUCCUAUUUGCCGCAUUCAACCGCUUUAUUCCUCCGAUGGUUCCCGGGUGGGUUUACAGCUUUUUGUACUUCAACAGAGGAUUGAGCAUCA
# B5: chr2:10440579:10440691:-|3pUTR|ENSG00000115758|unk|FALSE|unique (ssRNA)
# RNA: GGGAGUUCUACAGUCCGACGAUCUAACUGCAAGUUUAGCUUGAAUUAAGGGAUUUGGGGGGACCAUGUAACUUAAUUACUGCUAGUUUUGAAAUGUCUUUGUAAGAGUAGGGUCGCCAUGAUGCAGCCAUAUGGAAGACUAGGCAACAGAGGAUUGAGCAUCA
# B6: chr10:99879964:99880065:-|CDS|ENSG00000107554|unk|total|mutant (ssRNA)
# RNA: GGGAGUUCUACAGUCCGACGAUCCAGAUGCCCUUCAGACCCAGACUCCACCUCCCAGCCAAGGUCAGGGGACUCUGCAGAUGCCGCCCGAGAUGUAAAGCAACCCACUGCCACGCCGAGGAGCUACCGGAACUUCAGGCAUCCCAACAGAGGAUUGAGCAUCA
# B7: chr2:89040223:89040519:-|CDS|ENSG00000243290|control|control|control (ssRNA)
# RNA: GGGAGUUCUACAGUCCGACGAUCAUCUGUAGGAGACAGAGUCACCAUCACUUGUCGGGCGAGUCAGGGUAUUAGCAGCUGGUUAGCCUGGUAUCAGCAGAAACCAGGGAAAGCCCCUAAGCUCCUGAUCUAUGCUGCAUCCAGCAACAGAGGAUUGAGCAUCA
# B8: ENSG00000198589:be:win_3201|CDS|ENSG00000198589|bound_else_gene|NA|bound_elsewhere_windowed (ssRNA)
# RNA: GGGAGUUCUACAGUCCGACGAUCAACUGGCAAAGAUUCAAUGACUGUCAGUGAAGUAACUGCUUCUAUAAGUUCUCCUUCAGAAGAGGAUGCCUCAGAGAUGCCAGAAUUCUUGGAUAAAUCUAUAGUAGAGGAAGAGGAAGACAACAGAGGAUUGAGCAUCA
# B9: chr8:41262032:41262394:-|3pUTR|ENSG00000104332|msi1|total|mutant (ssRNA)
# RNA: GGGAGUUCUACAGUCCGACGAUCGGCCGUUCUGACCUGUUGCCAGCAGAUACACAGGACAUGGAUGAAAUUCCCGUUUCCUCCCGUUUCUUCCUGCCGUACUCCUCUUUCCGAUCCUAAGUCUCUUACAAAAGCUUUGAAUACCAACAGAGGAUUGAGCAUCA
# B10: chr15:59081107:59081211:+|CDS|ENSG00000157450|unk|total|mutant (ssRNA)
# RNA: GGGAGUUCUACAGUCCGACGAUCUUCUCAAAUAUCUUCUCAUGCAACAUCUCAUCCUGUGGCACCCCCACCACCAACUCACUCCGCCAGUACAGCUGCACCAAUCCCUCAGCAUCUUCCUCCUACACACCAGCCAAUUUCGCACAACAGAGGAUUGAGCAUCA
# B11: chr12:18688087:18688218:-|CDS|ENSG00000139151|control|control|control (ssRNA)
# RNA: GGGAGUUCUACAGUCCGACGAUCUGGUAUCCAGUUGCCUCUUACUCAUUCAUCAUCUAACAAAGGUGAUUCAUUAGUAAUUAUAGAAGUUUUUGGUGUUCCAAAUGAUCAAAUGAAGCAGCAGACUCGUGUAAUUAAAAAAAACAACAGAGGAUUGAGCAUCA
# B12: chr16:3022182:3022332:+|3pUTR|ENSG00000006327|msi1|total|mutant (ssRNA)
# RNA: GGGAGUUCUACAGUCCGACGAUCCCACGGGGGUCACCCUGGGGGGUCCGGGACCUAUUUUUAACACCCGGGGGCUGGCCCACCCGGAGGGCUGGCCCUAAGAUACAGACCCCCCCAACUCCCCAAAGCGGGGAGGAGAUAUUUCAACAGAGGAUUGAGCAUCA
# B13: chr15:55376998:55377117:-|CDS|ENSG00000260916|unk|FALSE|unique (ssRNA)
# RNA: GGGAGUUCUACAGUCCGACGAUCUAUCUAUAUUGGAACUGCCAGUGAUGAUUCUGAUAUUGUUACCCUUGAGCCACCUAAGUUAGAAGAAAUUGGAAAUCAAGAAGUUGUCAUUGUUGAAGAAGCACAGAGUUCAGAAGACUUCAACAGAGGAUUGAGCAUCA
# B14: ENSG00000181035:stop:overlap|stop_codon|ENSG00000181035|stop_codon|NA|stop_codon (ssRNA)
# RNA: GGGAGUUCUACAGUCCGACGAUCUGGGCAUCAGCUUCACCACCUUCGACCUCAUGCAGAUCCUGCUGCGGCACCUGCAGAGCUAGGGGACCCUGAGCUGCUCUCAGGACGGUGGACCGGUGACCCCUUUGUAUUCUGGGCCCACAACAGAGGAUUGAGCAUCA
# B15: ENSG00000104805:stop:overlap|stop_codon|ENSG00000104805|stop_codon|NA|stop_codon (ssRNA)
# RNA: GGGAGUUCUACAGUCCGACGAUCAGUUGAAGGAGGUGUGGGAGGAGCUGGAUGGACUGGACCCCAACAGCAUCCCAAAGUGCUAGGAUUACAGGCGUGAGUCACUGCGCCCGGCCUCGAAAGCCCUUUCUCUAUGGUGGAUCACAACAGAGGAUUGAGCAUCA
# B16: chr10:63214216:63214317:-|CDS|ENSG00000171988|unk|FALSE|unique (ssRNA)
# RNA: GGGAGUUCUACAGUCCGACGAUCUAAGCUGCAUAAGCGAAGUCCACCUCCAGAGACUAUAAAAUCUAAACUUAAUACUUCAGUAGAUACUCACAAGAUAAAAUCCAGCCCAUCACCUGAAGUUGUUAAACCCAAAAUAACUCACAACAGAGGAUUGAGCAUCA
# B17: chr8:54147534:54147638:+|CDS|ENSG00000137547|unk|total|mutant (ssRNA)
# RNA: GGGAGUUCUACAGUCCGACGAUCAAGUAUGGUUAUAUCUUACCUGAUAUCACUAAAGAUGAACUCUUCAAAAUGCUCUGUACCCGGAAGGAUCCAAGGCAGAUUUUCUUUGGUCUUGCUCCAGGAUGGGUGGUGAAUAUGGCCCAACAGAGGAUUGAGCAUCA
# B18: ENSG00000136451:be:win_4201|3pUTR|ENSG00000136451|bound_else_gene|NA|bound_elsewhere_windowed (ssRNA)
# RNA: GGGAGUUCUACAGUCCGACGAUCCCCUUCUGGUUGUAACCUGGUUGAGAGCUUCCCCUUUAUCAGAUUGGCAGCUAAACAGUUGUAUUAGAUAAUCCUUAAAUCUGACAUCCAGCCUGUUACGCUCUAGGGCUCGCUGCUUGGCAACAGAGGAUUGAGCAUCA
# B19: chrX:53532849:53532950:-|3pUTR|ENSG00000086758|unk|FALSE|unique (ssRNA)
# RNA: GGGAGUUCUACAGUCCGACGAUCGUGCUCCUCAGAUUCUGUGUUCAGAAGGAUUUGCUGCAUUGAGACUUGAAACCUUUGGAUAGGGGAAAAAAUUAUAUAUAUAUAUAUUUUUUUGUUCUGUUUGCAUUUCUUAAUUUGUGCCAACAGAGGAUUGAGCAUCA
# B20: chr1:202941098:202941199:-|3pUTR|ENSG00000159346|msi1_unk|total|mutant (ssRNA)
# RNA: GGGAGUUCUACAGUCCGACGAUCCCUCCCUUACCCCCAUCCUUAACUUUGUAUCCUGGCUUAUAACAGGCCAUCCAUUUUUGCCGCACACUUUUCAAAAACAAUUAUAUACCCUGGUCCCAUCUUUCCCGGGCCUGGAUCUGCCAACAGAGGAUUGAGCAUCA
# B21: chr2:196807445:196807622:-|CDS|ENSG00000187944|control|control|control (ssRNA)
# RNA: GGGAGUUCUACAGUCCGACGAUCAAGGGCAGAGGUCUUGAUCUUGGAACAUUUCCAAAUCCUUUCCCCACGAAUGAAAAUCCUAGACCUCUCUCUUUCCAGUCAGAACUUACUGCUUCUGCAUCUGCAGAUUAUGAAGAGCAGCAACAGAGGAUUGAGCAUCA
# B22: chr4:121668310:121668420:-|3pUTR|ENSG00000164111|msi1_unk|FALSE|overlapping (ssRNA)
# RNA: GGGAGUUCUACAGUCCGACGAUCCCUUCAGCACCUUUAGCUGCAUUUGUAUGCCAGUGCUUAACACAUUGCCUUAUUCAUACUAGCAUGCUCAUGACCAACACAUACACGUCAUAGAAGAAAAUAGUGGUGCUUCUUUCUGAUCAACAGAGGAUUGAGCAUCA
# Molecular target: MSI1 full-length (mouse, UniProt Q61474 1-362)
# Chain of UniProt Q61474 (Q61474 whole entry): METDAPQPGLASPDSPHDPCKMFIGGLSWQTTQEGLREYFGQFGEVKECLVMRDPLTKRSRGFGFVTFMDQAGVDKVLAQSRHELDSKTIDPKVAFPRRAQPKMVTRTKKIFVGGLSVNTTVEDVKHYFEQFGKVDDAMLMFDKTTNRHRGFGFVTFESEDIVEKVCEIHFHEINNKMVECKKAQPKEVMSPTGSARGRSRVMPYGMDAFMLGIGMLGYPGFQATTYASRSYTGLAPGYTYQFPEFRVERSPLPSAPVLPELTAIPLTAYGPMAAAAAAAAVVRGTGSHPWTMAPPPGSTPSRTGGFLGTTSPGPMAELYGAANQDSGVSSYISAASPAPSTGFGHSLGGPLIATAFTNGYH
# Test: nsRBNS (natural sequence RNA bind-n-seq); RBNS binding buffer (assumed for nsRBNS): 25 mM Tris pH 7.5, 150 mM KCl, 3 mM MgCl2, 0.01% Triton X-100, 500 ug/ml BSA, 20 U/ml SUPERase-In, 4 C; UNK is unkempt and MSI1 is Musashi-1; names of the RNAs are library labels; protein concentration not given here; high values mean tight binding
row,Binder,binding signal [enrichment R]
1,B1,0.803
2,B2,0.495
3,B3,0.364
4,B4,0.347
5,B5,1.79
6,B6,0.65
7,B7,0.359
8,B8,0.774
9,B9,0.417
10,B10,0.776
11,B11,0.585
12,B12,0.277
13,B13,1.68
14,B14,0.75
15,B15,0.432
16,B16,1.04
17,B17,0.269
18,B18,0.869
19,B19,0.388
20,B20,1.69
21,B21,0.294
22,B22,1.44

# Source: article PMC12136788
